# PubChem BioAssay AID488969 (Vanderbilt High Throughput Screening Facility, 2010)
# Over roughly 110,000 compounds, “z-score” has its median near -0.1; the highest 2% begin near 2. The list shows a part of the results. Activity calls are given as the source filed them.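 How the source made its calls: active means z-score in the third read window above 3 or below -3; inactive means the rest.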
# Molecular target: Metabotropic glutamate receptor 8 (Rattus norvegicus) (UniProt P70579)
# Experiment: rat mGluR8 modulators via GIRK flux, primary screen, cell-based, thallium flux, HTS (AID 488969)
# Settings: HEK293 rat mGluR8, GIRK (G protein-gated inwardly rectifying potassium channel) thallium flux, FluoZin2; at 10 µM; stronger effect = higher value; submaximal glutamate (EC20) added with thallium
# Chain of UniProt P70579 (P70579 whole entry, looked up): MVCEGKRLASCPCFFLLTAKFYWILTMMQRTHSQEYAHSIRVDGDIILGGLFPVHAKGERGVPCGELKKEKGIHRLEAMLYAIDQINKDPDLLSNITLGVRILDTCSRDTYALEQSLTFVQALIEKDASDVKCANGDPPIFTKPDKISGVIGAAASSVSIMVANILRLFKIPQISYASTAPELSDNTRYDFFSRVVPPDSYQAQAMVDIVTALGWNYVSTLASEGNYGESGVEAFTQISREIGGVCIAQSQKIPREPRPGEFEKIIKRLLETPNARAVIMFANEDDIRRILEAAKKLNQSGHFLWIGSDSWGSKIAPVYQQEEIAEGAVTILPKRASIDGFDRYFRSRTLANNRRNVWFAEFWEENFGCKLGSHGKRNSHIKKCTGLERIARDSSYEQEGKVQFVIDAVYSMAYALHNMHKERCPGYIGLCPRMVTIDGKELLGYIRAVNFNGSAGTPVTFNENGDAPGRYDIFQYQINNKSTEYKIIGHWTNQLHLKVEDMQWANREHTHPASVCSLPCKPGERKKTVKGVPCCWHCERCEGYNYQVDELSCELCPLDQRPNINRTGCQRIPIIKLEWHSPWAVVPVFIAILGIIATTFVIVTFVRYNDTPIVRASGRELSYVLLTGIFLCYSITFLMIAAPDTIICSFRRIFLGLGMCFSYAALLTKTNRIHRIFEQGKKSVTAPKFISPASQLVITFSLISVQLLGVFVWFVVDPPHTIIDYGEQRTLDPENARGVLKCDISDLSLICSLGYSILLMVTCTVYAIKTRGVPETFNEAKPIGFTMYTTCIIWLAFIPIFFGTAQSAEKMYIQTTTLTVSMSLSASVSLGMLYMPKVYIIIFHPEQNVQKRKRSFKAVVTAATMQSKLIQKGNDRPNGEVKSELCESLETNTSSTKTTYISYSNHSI
row,SMILES,z-score
1,Cc1cccc(C)c1OCC(=O)NCc1nnc(SCC(=O)NC2CCCCC2C)n1C (stereo not given),-0.0497
2,COc1ccc(-c2c(S(=O)(=O)c3ccccc3)cnn2-c2ccccc2)cc1,active: -3.36
3,COc1ccccc1N(CC(=O)Nc1cccnc1)S(=O)(=O)c1ccccc1,0.142
4,Cc1nn(CC(N)=O)c(=O)c2ccccc12,0.232
5,Cc1ccc(NC(=S)NNc2ncc(C(F)(F)F)cc2Cl)cc1,2.19
6,O=C(CNC(=O)c1ccc(Br)cc1)NCCc1nc2ccccc2[nH]1,-0.114
7,CCOC(=O)c1ccc(NC(=O)CCOc2ccc(OC)cc2)cc1,-0.441
8,O=C(c1c(Cl)nc2sccn12)N(C(=O)c1c(Cl)nc2sccn12)c1ccc(Cl)cn1,-0.871
9,CN1CCN(NC(=O)c2cc([N+](=O)[O-])cc([N+](=O)[O-])c2)CC1,-0.00308
10,Cc1cccc(N(C(=O)CNC(=O)c2ccco2)C(C(=O)NC2CCCC2)c2cccnc2)c1 (stereo not given),-0.121
11,Cc1cc(C)c2nc(NC(=O)c3ccc(OCC4CCCO4)cc3)sc2c1 (stereo not given),-0.201
12,CC(C(=O)N1CCc2ccccc21)N1CCN(c2ccccn2)CC1 (stereo not given),-0.041
13,O=C1NC(=Nc2ccccc2)c2ccc([N+](=O)[O-])cc21,-0.111
14,COc1ccccc1N1C(=O)CC(Sc2ncccc2C(=O)O)C1=O (stereo not given),-0.0538
15,CCOC(=O)c1c(C)sc2c1N(C(=O)CN(CC)CC)c1cc(Cl)ccc1S2,1.49
16,CN1/C(=C\C=[N+](C)c2ccccc2)C(C)(C)c2ccccc21,0.143
17,Cc1ccc(-c2cc3nc(-c4ccccc4)cc(N4CCC5(CC4)OCCO5)n3n2)cc1,-0.0303
18,COc1ccccc1N/C(N)=N/c1nc(CSc2nc3ccccc3s2)cc(=O)[nH]1,-0.65
19,COC(=O)c1cnn2c(C(F)(F)F)cc(-c3ccco3)nc12,0.694
20,COCCNC(=O)c1cc(Br)ccc1Cl,0.789
21,Cc1[nH]c2ccccc2c1NC(=O)CN1CCN(Cc2ccc3c(c2)OCO3)CC1,-0.288
22,N#Cc1c(NC(=O)CSc2nnc(-c3ccccc3O)n2-c2ccccc2)sc2c1CCCC2,-0.575

row,SMILES,z-score
1,Cc1ccccc1C(=NC(=O)c1ccccc1)c1ccccc1,-0.0331
2,CCOc1ccc(-c2nnc(NC(=O)c3ccc(OCC(C)C)c(OC)c3)o2)cc1,active: 10.4
3,Cc1ccccc1NC(=O)C1Cc2ccccc2CN1C(=O)OCc1ccccc1 (stereo not given),-0.408
4,O=Nc1c(O)n(Cc2ccc(Cl)c(Cl)c2)c2ccccc12,-0.0596
5,Fc1cccc(-c2cc3nc4c(c(NCc5ccco5)n3n2)CCCC4)c1,0.132
6,CCOC(=O)c1nnc(-c2ccc(C)cc2)nc1Oc1ccccc1Cl,-0.391
7,COc1ccccc1CNC(=O)C(=O)NCC1CCCO1 (stereo not given),-0.0304
8,CCOc1cc(S(=O)(=O)N2CCC(C(N)=O)CC2)ccc1F,-0.195
9,CC12CCC(C(=O)NCc3ccccn3)(OC1=O)C2(C)C (stereo not given),-0.0765
10,Cc1cc(C(=O)N/N=C2\CC(=O)CC(C)(C)C2)n[nH]1,0.0606
11,N#Cc1c(SCC(=O)O)nc(N2CCCCC2)c2c1CCCC2,-2.52
12,CCOC(=O)C1C(=O)OC(C)(C)C1C(C)C(=O)c1ccccc1 (stereo not given),-0.205
13,CC(C)CCNC(=O)C1CCCCN1S(=O)(=O)c1ccc(F)cc1 (stereo not given),-0.206
14,C=CCNC(=O)/C(=C/c1ccco1)NC(=O)c1ccc(Br)o1,-0.238
15,Cc1cc(C(=O)N/N=C/c2cccc(Cl)c2Cl)no1,-0.0874
16,Nc1ccc(C(=O)OCC(=O)N2CCc3ccccc3C2)cc1[N+](=O)[O-],-0.12
17,O=C(c1cc(-c2ccccc2)on1)N1CCN(Cc2ccc3c(c2)OCO3)CC1,-0.249
18,Cc1onc(-c2ccccc2Cl)c1C(=O)N(C)C1CCCCC1,-1.65
19,CCc1nnc(NC(=O)c2ccc(-c3ccc(Cl)cc3)o2)s1,-0.00338
20,N#Cc1cc(N)c(Nc2ccccc2)cc1C#N,-1.57
21,Cc1nn(C(=O)c2ccc3c(c2)OCO3)c(N)c1-c1ccccc1,0.808
22,Cc1cccc(NC(=S)N2CCC(c3nc4ccccc4s3)CC2)c1,-0.153

row,SMILES,z-score
1,O=C(CSc1nnc(Cc2cc(=O)[nH]c(=O)[nH]2)n1-c1ccccc1)NCC1CCCO1 (stereo not given),0.18
2,CC(C)CCn1cnc2c1c(=O)n(C)c(=O)n2C,0.28
3,C/C(N)=C(/C#N)C(=O)CSc1nnc(COc2ccccc2Cl)o1,0.832
4,CC1Cc2cc(-c3csc(NC(=O)Cc4ccccc4)n3)ccc2N1S(C)(=O)=O (stereo not given),-0.48
5,Fc1ccc(NC(=S)N2CCCC2)cc1Cl,-0.26
6,O=c1[nH]c(NCCO)nc2c1C1(CCCCC1)Cc1ccccc1-2,0.942
7,Cc1ccc(-c2csc(NC(=O)c3cccc(N4C(=O)CCC4=O)c3)n2)o1,-0.22
8,C/C(CC(=O)NCc1ccccc1)=N\NC(=O)c1cnccn1,-0.215
9,CCC(C)NC(=O)N[C@@H](Cc1ccccc1)C(=O)O (stereo not given in full),-0.394
10,CCOC(=O)CSc1nnc(Cc2ccc(OC)cc2)n1-c1ccccc1,0.371
11,COc1ccc(/C=N/NC(=O)CCc2c(C)n[nH]c2C)cc1OC,-0.0565
12,Cc1nn(C)c(C)c1NC(=O)CSc1nc(C2CC2)nc2c1cnn2-c1ccccc1,0.634
13,Cc1nnc(NC(=O)/C=C/c2ccco2)s1,-0.0918
14,Cc1ccc(-c2n[nH]c(=S)n2/N=C\c2ccco2)cc1,-0.16
15,O=C(Cc1cccs1)Nc1nc2c(s1)CCCC2,-0.592
16,COc1ccccc1OCCC(=O)OCC(=O)Nc1ncc(Cl)cc1Cl,0.779
17,Cc1ccc(CN2C(=O)CCC2C(=O)NC2CCCC2)cc1 (stereo not given),-0.0172
18,CCc1cc(C(=O)N=Nc2c(O)[nH]c3c(Br)cc(Br)cc23)c2ccccc2n1,-0.189
19,Cc1ccc(C(=O)Nc2cc(Cl)ccc2Oc2ccccc2)cc1[N+](=O)[O-],-0.324
20,O=C(CN1C(=O)CCS(=O)(=O)c2ccccc21)NCc1ccc(F)cc1,0.806
21,CCOc1ccc(/C(O)=C2/C(=O)C(=O)N(Cc3cccnc3)C2c2ccc(N(C)C)cc2)c(C)c1 (stereo not given),-0.508
22,C=CCN(C#N)c1nc(OC)nc(N2CCCC2)n1,-0.561

row,SMILES,z-score
1,Nc1nnc(-c2ccccc2)c(-c2ccccc2)n1,-0.237
2,Cc1cccc(C)c1OCc1n[nH]c(=S)o1,-0.0164
3,N/C(Cc1cccc2ccccc12)=N\OC(=O)c1cccs1,-0.626
4,COc1ccc(CC(=O)c2cc(OC)c(OC)cc2CC(=O)O)cc1OC,-0.579
5,O=C(CN1CCOCC1)Nc1ncc(Cc2cccc(Cl)c2)s1,-0.339
6,Cc1cc(C)c(OCCOCCN(C)C)c(Br)c1,-0.584
7,O=C(NCc1ccc(-c2nc3ccccc3s2)cc1)c1cc2ccccc2o1,-0.0663
8,CCCCOC(=O)n1c(=O)oc2ccccc21,-0.0354
9,Cc1cccc(C(=O)Nc2ccccc2SCC2CSc3nc4ccccc4c(=O)n32)c1 (stereo not given),-1.1
10,CN(C)C(=O)c1cc(S(=O)(=O)N(C)C)c(Cl)cc1N1CCCC1,-0.247
11,NC(=O)Cn1c(S(=O)(=O)Cc2ccccc2)nc2ccccc21,0.584
12,CCOC(=O)Cc1csc(NC(=S)NC(=O)c2ccc(Cl)cc2)n1,2.1
13,O=C(C/C=N/OCc1ccc(Cl)cc1Cl)c1ccc(Cl)cc1,0.161
14,Cc1onc(-c2ccccc2)c1C(=O)Nc1nc2c(s1)C(=O)CC(C)(C)C2,-0.00828
15,CCn1c(-c2cc(-c3ccccc3OC)nc3ccccc23)n[nH]c1=S,0.152
16,Cc1ccc(C(=O)CCNc2cccc(Br)c2)o1,-0.445
17,Cc1ccccc1OCC(=O)O/N=C(\N)Cc1ccc(Cl)cc1,-0.483
18,C/C=C/c1ccc(OCCCNC2CCCC2)c(OC)c1,1.24
19,CCOC(=O)CCS(=O)(=O)c1nc(-c2ccccc2)cc(C(F)(F)F)n1,-0.802
20,Nc1nnnn1NCc1cccc(OCc2ccccc2)c1,-0.851
21,Cc1cc(C)c2oc(-c3ccc(C)c(NC(=S)NC(=O)c4cccs4)c3)nc2c1,active: 3.57
22,O=C(Nc1ccccc1C(=O)OCC(=O)c1c[nH]c2ccccc12)c1ccco1,-0.255

row,SMILES,z-score
1,COc1ccc(CNc2ccc(C(=O)O)cc2)cc1,0.858
2,O=C(O)CCCN1C(=O)/C(=C/c2ccc(-c3nc4ccccc4s3)o2)SC1=S,0.773
3,NC12CCc3c(no[n+]3[O-])C1(O)CC(c1ccccc1)=[N+]2[O-] (stereo not given),-0.35
4,O=c1c2cc(N3CCOCC3)ccc2[nH]c(=S)n1Cc1ccc(Cl)cc1,0.826
5,CC(=O)Nc1nonc1C(=O)N1CCC(C)CC1,-0.119
6,CC(=O)SCC(C)C(=O)NCc1ccccc1 (stereo not given),0.487
7,Cc1cccc(N2CCN(S(=O)(=O)c3ccc(S(=O)(=O)N4CCCC4)cc3)CC2)c1C,-0.533
8,COC(=O)/C(=C/Nc1cccc2ccccc12)[N+](=O)[O-],-0.204
9,CCN(CC)P(=O)(/C(Cl)=C\Nc1c(C)n(C)n(-c2ccccc2)c1=O)N(CC)CC,-0.27
10,COCCCN=C(c1ccco1)n1c(=S)nc(-c2ccco2)n(CCCOC)c1=S,-0.525
11,COc1cc(CCC(=O)OCC(=O)Nc2c(C)cc(C)cc2C)cc(OC)c1OC,-0.204
12,COc1cc(C)c(Cl)cc1S(=O)(=O)NCc1ccco1,0.25
13,CCOc1ccccc1NC(=O)C1C2C=CC(C2)C1C(=O)O (stereo not given),-0.000563
14,Cc1ccc(C)c(N2CCN(C(=O)CN(C)S(=O)(=O)c3ccc4c(c3)CCC(=O)N4)CC2)c1,-0.168
15,COCCn1c(N2CCN(c3ccc(OC)cc3)CC2)nc2c1c(=O)n(C)c(=O)n2C,-0.0614
16,CCOC(=O)Cn1c(=O)n(Cc2ccco2)c(=O)c2ccc(C(=O)NCCc3ccccc3)cc21,-1.79
17,Nc1cc(N)nc(SCC(=O)NCC2CCCO2)n1 (stereo not given),-0.167
18,CCC(O)CNc1nc(SC)nc2sc3c(c12)CCN(C)C3 (stereo not given),-0.691
19,Cc1ccc(Cl)cc1N1CCN(Cc2nc3ccsc3c(=O)[nH]2)CC1,-0.184
20,CCN(CC)CC(O)COc1ccc2c(c1)OCO2 (stereo not given),-0.199
21,CN(C)S(=O)(=O)c1ccc(C(=O)Nc2nnc(SCc3cccc(F)c3)s2)cc1,-0.249
22,O=[N+]([O-])c1ccc(/C=C/c2nc3ccc([N+](=O)[O-])cc3[nH]2)cc1,-0.389
